Test results taken from paper PMC11995724, “Antibiotic target discovery by integrated phenotypic and activity-based profiling of electrophilic fragments” (Cell chemical biology, 2025).
Among all 3,200 compounds or so, about 75 (2%) showed an effect of 50% or more. The list shows a part of the results.

The molecules below were run on T1, S. aureus MSSA476. Conditions: relative growth, OD600, TSB; 25 µM; inhibitor.
T1 construct: MSSA476
Design: species or system S. aureus MSSA476 (TSB) or V. cholerae SAD30 (LB); 384-well bacterial growth screen at 25 uM, OD600 relative to DMSO control

Row | SMILES | % of control remaining
1 | CC(Cl)C(=O)NC(=O)NC1CCS(=O)(=O)C1 (stereo not shown) [4-J13, 3-(2-chloropropanoyl)-1-(1,1-dioxo-1lambda6-thiolan-3-yl)urea] | 106.717%
2 | Cc1c(Cl)cccc1NC(=O)CNC(=O)CCl [5-N20, 2-chloro-N-{[(3-chloro-2-methylphenyl)carbamoyl]methyl}acetamide] | 96.5392%
3 | C=CC(=O)NC(C1CCC1)C1CCOC1 (stereo not shown) [1-O22, N-[cyclobutyl(oxolan-3-yl)methyl]prop-2-enamide] | 94.2418%
4 | CCOc1ccc(C=C(C#N)C(=O)N2CCc3sccc3C2)cc1 [8-G22, 3-(4-ethoxyphenyl)-2-{4H,5H,6H,7H-thieno[3,2-c]pyridine-5-carbonyl}prop-2-enenitrile] | 89.9585%
5 | C=CC(=O)N1CCC(C(=O)NCc2cn3ccc(C)nc3n2)CC1 [3-D12, N-({7-methylimidazo[1,2-a]pyrimidin-2-yl}methyl)-1-(prop-2-enoyl)piperidine-4-carboxamide] | 107.27%
6 | O=C(CCl)Nc1ccc(Oc2cccc(Cl)c2)cc1 [6-C18, 2-chloro-N-[4-(3-chlorophenoxy)phenyl]acetamide] | 115.756%
7 | O=C(CCl)Nc1ccc2ccccc2c1 [4-B12, 2-chloro-N-(naphthalen-2-yl)acetamide] | 131.872%
8 | O=C(CCl)c1cc2c3c(c1)CC(=O)N3CCC2 [10-G16, 6-(2-chloroacetyl)-1-azatricyclo[6.3.1.0,4,12]dodeca-4(12),5,7-trien-2-one] | 130.938%
9 | N#CC(=Cc1ccc(Cl)c(Cl)c1)C(=O)NCc1ccccc1 [8-B07, N-benzyl-2-cyano-3-(3,4-dichlorophenyl)prop-2-enamide] | 110.539%
10 | C=CC(=O)Nc1cc(NC(=O)c2ccc([N+](=O)[O-])o2)ccc1F [3-J04, N-[4-fluoro-3-(prop-2-enamido)phenyl]-5-nitrofuran-2-carboxamide] | -4.528%
11 | CCc1ccccc1NC(=O)CN(C)C(=O)C(C)Cl (stereo not shown) [4-P05, 2-chloro-N-{[(2-ethylphenyl)carbamoyl]methyl}-N-methylpropanamide] | 90.7099%
12 | N#CC(=Cc1cccc2nccn12)C(=O)Nc1ccccc1 [9-M05, 2-cyano-3-{imidazo[1,2-a]pyridin-5-yl}-N-phenylprop-2-enamide] | 108.464%
13 | C=CC(=O)Nc1ccc2c(c1)CCO2 [1-O11, N-(2,3-dihydro-1-benzofuran-5-yl)prop-2-enamide] | 111.824%
14 | Cc1cc(C(=O)CCl)c(C)n1-c1ccc(OC(F)F)c(Cl)c1 [10-K04, 2-chloro-1-{1-[3-chloro-4-(difluoromethoxy)phenyl]-2,5-dimethyl-1H-pyrrol-3-yl}ethan-1-one] | 0%
15 | C=CC(=O)Nc1ccc(OC)c(COC)c1 [3-B06, N-[4-methoxy-3-(methoxymethyl)phenyl]prop-2-enamide] | 91.2495%
16 | c1ccc(CSSCc2ccccc2)cc1 [10-O21, [(benzyldisulfanyl)methyl]benzene] | 113.125%
17 | CNC(=O)C(C#N)=Cc1cccc(-c2ccncc2)c1 [9-L14, 2-cyano-N-methyl-3-[3-(pyridin-4-yl)phenyl]prop-2-enamide] | 106.367%
18 | COc1ccccc1NC(=O)c1ccc(NC(=O)C(C)Cl)cc1 (stereo not shown) [5-C17, 4-(2-chloropropanamido)-N-(2-methoxyphenyl)benzamide] | 104.918%
19 | C=CC(=O)N1CCC(F)CC1 [1-D14, 1-(4-fluoropiperidin-1-yl)prop-2-en-1-one] | 103.385%
20 | Cc1ccc(C=C(C#N)C(=O)Nc2ccc(C(=O)O)cc2)o1 [8-C14, 4-[2-cyano-3-(5-methylfuran-2-yl)prop-2-enamido]benzoic acid] | 106.224%
21 | Cc1ccc(S(=O)(=O)N2CCCCC2)cc1NC(=O)CCl [4-L06, 2-chloro-N-[2-methyl-5-(piperidine-1-sulfonyl)phenyl]acetamide] | 99.8571%
22 | CC(Cl)C(=O)NCC1(C2CC2)CCC1 (stereo not shown) [7-A06, 2-chloro-N-[(1-cyclopropylcyclobutyl)methyl]propanamide] | 94.8195%
23 | Cn1cc(S(=O)(=O)N2CCOCC2)cc1C(=O)NC(=O)CCl [4-P20, N-(2-chloroacetyl)-1-methyl-4-(morpholine-4-sulfonyl)-1H-pyrrole-2-carboxamide] | 92.2344%

Row | SMILES | % of control remaining
24 | CC(Cl)C(=O)N1c2ccccc2NC(=O)C1(C)C (stereo not shown) [4-C08, 4-(2-chloropropanoyl)-3,3-dimethyl-1,2,3,4-tetrahydroquinoxalin-2-one] | 117.77%
25 | O=C(CCl)Nc1oncc1-c1ccccc1 [6-I20, 2-chloro-N-(4-phenyl-1,2-oxazol-5-yl)acetamide] | 96.2927%
26 | CC(Cl)C(=O)NC(C)c1ccc2c(c1)CCCC2 (stereo not shown) [6-A07, 2-chloro-N-[1-(5,6,7,8-tetrahydronaphthalen-2-yl)ethyl]propanamide] | 81.6098%
27 | N#CC(=Cc1cccc(Cl)c1)C(=O)Nc1ccccc1C(F)(F)F [8-J13, 3-(3-chlorophenyl)-2-cyano-N-[2-(trifluoromethyl)phenyl]prop-2-enamide] | 131.12%
28 | CC(Cl)C(=O)N1CC(OCc2cccc3ccccc23)C1 (stereo not shown) [7-I03, 2-chloro-1-{3-[(naphthalen-1-yl)methoxy]azetidin-1-yl}propan-1-one] | 82.2606%
29 | C=CC(=O)N1CCC(C(=O)N(C)CCn2cccn2)CC1 [2-J12, N-methyl-1-(prop-2-enoyl)-N-[2-(1H-pyrazol-1-yl)ethyl]piperidine-4-carboxamide] | 85.9878%
30 | CC(Cl)C(=O)NC(c1cc(Cl)ccc1Cl)C1CCOC1 (stereo not shown) [7-K21, 2-chloro-N-[(2,5-dichlorophenyl)(oxolan-3-yl)methyl]propanamide] | 91.9937%
31 | CC(Cl)C(=O)NC1CCN(c2ccccc2C(F)(F)F)C1 (stereo not shown) [7-C17, 2-chloro-N-{1-[2-(trifluoromethyl)phenyl]pyrrolidin-3-yl}propanamide] | 102.983%
32 | CC(=O)N(Cc1ncc(C(C)C)o1)C1CCN(C(=O)C(C)Cl)C1 (stereo not shown) [6-J07, N-[1-(2-chloropropanoyl)pyrrolidin-3-yl]-N-{[5-(propan-2-yl)-1,3-oxazol-2-yl]methyl}acetamide] | 96.6341%
33 | COc1ccc(C2=NN(C(=O)CCl)C(c3cccc(C)c3)C2)cc1 (stereo not shown) [4-G20, 2-chloro-1-[3-(4-methoxyphenyl)-5-(3-methylphenyl)-4,5-dihydro-1H-pyrazol-1-yl]ethan-1-one] | 10.2906%
34 | CC(Cl)C(=O)Nc1ccc(F)c(F)c1 (stereo not shown) [6-P08, 2-chloro-N-(3,4-difluorophenyl)propanamide] | 101.415%
35 | CCN(Cc1ccc2c(c1)OCO2)C(=O)CCl [5-L07, N-[(1,3-dioxaindan-5-yl)methyl]-2-chloro-N-ethylacetamide] | 105.282%
36 | C=CC(=O)NC(C)(C)c1noc(CCC)n1 [1-N10, N-[2-(5-propyl-1,2,4-oxadiazol-3-yl)propan-2-yl]prop-2-enamide] | 115.341%
37 | CC(Cl)C(=O)NC1CCCN(c2cnn(C)c2)C1 (stereo not shown) [7-K19, 2-chloro-N-[1-(1-methyl-1H-pyrazol-4-yl)piperidin-3-yl]propanamide] | 94.5055%
38 | O=C(CCl)Nc1nc2ccc([N+](=O)[O-])cc2s1 [4-H08, 2-chloro-N-(6-nitro-1,3-benzothiazol-2-yl)acetamide] | 90.3287%
39 | N#CC(=Cc1c(F)cccc1F)C(=O)NCCc1ccccc1 [8-D18, 2-cyano-3-(2,6-difluorophenyl)-N-(2-phenylethyl)prop-2-enamide] | 118.174%
40 | Cc1ccc(NC(=O)C(C#N)=Cc2cccc(Cl)c2Cl)cc1 [8-D06, 2-cyano-3-(2,3-dichlorophenyl)-N-(4-methylphenyl)prop-2-enamide] | 98.2573%
41 | O=C(CCl)NCc1ccn(Cc2ccccc2)n1 [7-H10, N-[(1-benzyl-1H-pyrazol-3-yl)methyl]-2-chloroacetamide] | 122.135%
42 | Cc1ccsc1-c1nnc(NC(=O)CCl)o1 [6-K03, 2-chloro-N-[5-(3-methylthiophen-2-yl)-1,3,4-oxadiazol-2-yl]acetamide] | 103.805%
43 | C=CC(=O)N1CCCN(S(N)(=O)=O)CC1 [3-K10, 4-(prop-2-enoyl)-1,4-diazepane-1-sulfonamide] | 97.8668%
44 | CC(Cl)C(=O)N1CCCC1c1cccc(N(C)C)c1 (stereo not shown) [7-A22, 2-chloro-1-{2-[3-(dimethylamino)phenyl]pyrrolidin-1-yl}propan-1-one] | 90.7378%
45 | CC(Cl)C(=O)N(C)Cc1ncc(C2CC2)o1 (stereo not shown) [5-B22, 2-chloro-N-[(5-cyclopropyl-1,3-oxazol-2-yl)methyl]-N-methylpropanamide] | 96.9035%
46 | COc1cccc(NC(=O)C(C#N)=Cc2c[nH]c(-c3ccccc3)n2)c1 [9-C20, 2-cyano-N-(3-methoxyphenyl)-3-(2-phenyl-1H-imidazol-4-yl)prop-2-enamide] | 78.8015%
